Here are results for 28 molecules from patent US9873709B2 (priority 2013, dated 2018).

Each structure is given as a SMILES string. Structures can show the parent of a compound that is named as a salt.

What is called Ki is a measure of affinity in units of concentration, obtained from inhibition or displacement.

The target of the first assay is T1, isolated recombinant JAK1 kinase domain (Homo sapiens (Human), UniProt P23458). In words: biochemical.
T1 sequence (P23458 875-1153): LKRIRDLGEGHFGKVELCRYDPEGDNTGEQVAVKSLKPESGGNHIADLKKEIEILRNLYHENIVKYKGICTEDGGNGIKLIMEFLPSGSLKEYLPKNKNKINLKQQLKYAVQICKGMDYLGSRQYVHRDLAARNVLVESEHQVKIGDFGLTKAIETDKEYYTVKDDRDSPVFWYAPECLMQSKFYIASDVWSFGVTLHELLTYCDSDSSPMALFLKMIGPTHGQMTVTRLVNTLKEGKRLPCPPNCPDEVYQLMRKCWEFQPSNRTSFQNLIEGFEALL
Conditions: not given
Turning to `CC(=O)N1CCN(c2cccn3nc(Nc4ccc(C(=O)N(C)C5CCN(C)CC5)cc4)nc23)CC1` [Example 1-10, 4-[[8-(4-acetylpiperazin-1-yl)-[1,2,4]triazolo[1,5-a]pyridin-2-yl]amino]-N-methyl-N-(1-methyl-4-piperidyl)benzamide], the inhibition constant (Ki) was found to be 321 nM. With `CN1CCC(N(C)C(=O)c2ccc(Nc3nc4c(N5CCC(C#N)CC5)cccn4n3)cc2)CC1` [Example 1-11, 4-[[8-(4-cyano-1-piperidyl)-[1,2,4]triazolo[1,5-a]pyridin-2-yl]amino]-N-methyl-N-(1-methyl-4-piperidyl)benzamide], the inhibitory constant (Ki) was 25.9 nM. On the same count and under the same terms, under `CN1CCC(N(C)C(=O)c2ccc(Nc3nc4c(N5CCCCC5)cccn4n3)cc2)CC1` [Example 1-12, N-methyl-N-(1-methyl-4-piperidyl)-4-[[8-(1-piperidyl)-[1,2,4]triazolo[1,5-a]pyridin-2-yl]amino]benzamide; dihydrochloride] stands 406 nM; under `CN1CCC(N(C)C(=O)c2ccc(Nc3nc4c(N5CCN(c6ccccc6)CC5)cccn4n3)cc2)CC1` [Example 1-13, N-methyl-N-(1-methyl-4-piperidyl)-4-[[8-(4-phenylpiperazin-1-yl)-[1,2,4]triazolo[1,5-a]pyridin-2-yl]amino]benzamide], 58.4 nM.

For the molecule `CN1CCC(N(C)C(=O)c2ccc(Nc3nc4c(N5CCC(O)(c6ccc(Cl)cc6)CC5)cccn4n3)cc2)CC1` [Example 1-17, 4-[[8-[4-(4-chlorophenyl)-4-hydroxy-1-piperidyl]-[1,2,4]triazolo[1,5-a]pyridin-2-yl]amino]-N-methyl-N-(1-methyl-4-piperidyl)benzamide], the inhibition constant Ki was found to be 2.91 nM.

Consider `CN1CCC(N(C)C(=O)c2ccc(Nc3nc4c(N5CCC(O)(c6cccnc6)CC5)cccn4n3)cc2)CC1` [Example 1-19, 4-[[8-[4-hydroxy-4-(3-pyridyl)-1-piperidyl]-[1,2,4]triazolo[1,5-a]pyridin-2-yl]amino]-N-methyl-N-(1-methyl-4-piperidyl)benzamide], for which the inhibition constant (Ki) came out at 178 nM. As to `CN1CCC(N(C)C(=O)c2ccc(Nc3nc4c(N5CCC(O)(c6ccc(F)cc6)CC5)cccn4n3)cc2)CC1` [Example 1-37, 4-[[8-[4-(4-fluorophenyl)-4-hydroxy-1-piperidyl]-[1,2,4]triazolo[1,5-a]pyridin-2-yl]amino]-N-methyl-N-(1-methyl-4-piperidyl)benzamide], the Ki amounted to 23.6 nM. Take `CC(C)c1ccc(C2(O)CCN(c3cccn4nc(Nc5ccc(C(=O)N(C)C6CCN(C)CC6)cc5)nc34)CC2)cc1` [Example 1-38, 4-[[8-[4-hydroxy-4-(4-isopropylphenyl)-1-piperidyl]-[1,2,4]triazolo[1,5-a]pyridin-2-yl]amino]-N-methyl-N-(1-methyl-4-piperidyl)benzamide]: the Ki came out at 6.86 nM. `CNC1CN(C(=O)c2ccc(Nc3nc4c(N5CCC(O)(c6ccc(Cl)cc6)CC5)cccn4n3)cc2)C1` [Example 1-47, [4-[[8-[4-(4-chlorophenyl)-4-hydroxy-1-piperidyl]-[1,2,4]triazolo[1,5-a]pyridin-2-yl]amino]phenyl]-[3-(methylamino)azetidin-1-yl]methanone]: the inhibitory constant (Ki) was determined as 1.35 nM. On to `CC(C)(CNC(=O)c1ccc(Nc2nc3c(N4CCC(O)(c5ccc(Cl)cc5)CC4)cccn3n2)cc1)N1CCOCC1` [Example 1-94, 4-[[8-[4-(4-chlorophenyl)-4-hydroxy-1-piperidyl]-[1,2,4]triazolo[1,5-a]pyridin-2-yl]amino]-N-(2-methyl-2-morpholino-propyl)benzamide], for which the Ki came out at 2.58 nM.

Take `NCCNC(=O)c1ccc(Nc2nc3c(N4CCC(O)(c5ccc(Cl)cc5)CC4)cccn3n2)cc1` [Example 1-175, N-(2-aminoethyl)-4-[[8-[4-(4-chlorophenyl)-4-hydroxy-1-piperidyl]-[1,2,4]triazolo[1,5-a]pyridin-2-yl]amino]benzamide]: the Ki is 1.74 nM. For `O=C(c1ccc(Nc2nc3c(N4CCC(O)(c5ccc(Cl)cc5)CC4)cccn3n2)cc1)N1CCNCC1` [Example 1-177, [4-[[8-[4-(4-chlorophenyl)-4-hydroxy-1-piperidyl]-[1,2,4]triazolo[1,5-a]pyridin-2-yl]amino]phenyl]-piperazin-1-yl-methanone], the inhibitory constant (Ki) amounted to 2.08 nM. On the same count and under the same terms, under `O=C(c1ccc(Nc2nc3c(N4CCC(O)(c5ccc(Cl)cc5)CC4)cccn3n2)cc1)N1CCC2(CCCN2)C1` (stereo not shown) [Example 1-208, [4-[[8-[4-(4-chlorophenyl)-4-hydroxy-1-piperidyl]-[1,2,4]triazolo[1,5-a]pyridin-2-yl]amino]phenyl]-(1,7-diazaspiro[4.4]nonan-7-yl)methanone] stands 2.31 nM. On the same count and under the same terms, under `O=C(c1ccc(Nc2nc3c(N4CCC(O)(c5ccc(Cl)cc5)CC4)cccn3n2)cc1)N1C[C@H]2CN[C@H]2C1` [Example 1-232, [4-[[8-[4-(4-chlorophenyl)-4-hydroxy-1-piperidyl]-[1,2,4]triazolo[1,5-a]pyridin-2-yl]amino]phenyl]-[(1R,5R)-3,6-diazabicyclo[3.2.0]heptan-3-yl]methanone] stands 2.83 nM; under `CNC1CN(C(=O)c2ccc(Nc3nc4c(N5CCC(CO)(c6ccc(Cl)cc6)CC5)cccn4n3)cc2)C1` [Example 1-283, [4-[[8-[4-(4-chlorophenyl)-4-(hydroxymethyl)-1-piperidyl]-[1,2,4]triazolo[1,5-a]pyridin-2-yl]amino]phenyl]-[3-(methylamino)azetidin-1-yl]methanone], 0.18 nM. Take `CN1CCC(N(C)C(=O)c2ccc(Nc3nc4c(N5C[C@@H]6C[C@](O)(c7ccccc7)C[C@@H]6C5)cccn4n3)cc2)CC1` [Example 1-292]: the inhibition constant Ki came out at 142 nM. Same read-out and setting: under `CCOC(=O)N1CC=C(c2cccn3nc(Nc4ccc(C(=O)N5CCO[C@@H]6CNC[C@@H]65)cc4)nc23)CC1` [Example 2-72, ethyl 4-[2-[4-[(4aS,7aR)-3,4a,5,6,7,7a-hexahydro-2H-pyrrolo[3,4-b][1,4]oxazine-4-carbonyl]anilino]-[1,2,4]triazolo[1,5-a]pyridin-8-yl]-3,6-dihydro-2H-pyridine-1-carboxylate] stands 5.01 nM; under `CCOC(=O)N1CC=C(c2cccn3nc(Nc4ccc(C(=O)NCC5CCCCN5)cc4)nc23)CC1` (stereo not shown) [Example 2-114, ethyl 4-[2-[4-(2-piperidylmethylcarbamoyl)anilino]-[1,2,4]triazolo[1,5-a]pyridin-8-yl]-3,6-dihydro-2H-pyridine-1-carboxylate], 1.73 nM; under `O=C(CCC(F)(F)F)N1CC=C(c2cccn3nc(Nc4ccc(C(=O)N5CCCC5c5cccnc5)cc4)nc23)CC1` (stereo not shown) [Example 2-145, 4,4,4-trifluoro-1-[4-[2-[4-[2-(3-pyridyl)pyrrolidine-1-carbonyl]anilino]-[1,2,4]triazolo[1,5-a]pyridin-8-yl]-3,6-dihydro-2H-pyridin-1-yl]butan-1-one], 0.66 nM. With `CC1CCN(CCNC(=O)c2ccc(Nc3nc4c(C5=CCN(C(=O)CCC(F)(F)F)CC5)cccn4n3)cc2)CC1` [Example 2-147, N-[2-(4-methyl-1-piperidyl)ethyl]-4-[[8-[1-(4,4,4-trifluorobutanoyl)-3,6-dihydro-2H-pyridin-4-yl]-[1,2,4]triazolo[1,5-a]pyridin-2-yl]amino]benzamide], the inhibition constant Ki was determined as 6.81 nM. Still for that read-out and setting: under `CN1CCC(N(C)C(=O)c2ccc(Nc3nc4c(C5=CCN(C(=O)NCc6ccccc6)CC5)cccn4n3)cc2)CC1` [Example 2-222, N-benzyl-4-[2-[4-[methyl-(1-methyl-4-piperidyl)carbamoyl]anilino]-[1,2,4]triazolo[1,5-a]pyridin-8-yl]-3,6-dihydro-2H-pyridine-1-carboxamide] stands 4.13 nM.

For `CCOC(=O)N1CC=C(c2cccn3nc(Nc4ccc(C(=O)N5CC[C@H]6CN(C)C[C@H]65)cc4)nc23)CC1` [Example 2-244, ethyl 4-[2-[4-[(3aS,6aS)-5-methyl-2,3,3a,4,6,6a-hexahydropyrrolo[2,3-c]pyrrole-1-carbonyl]anilino]-[1,2,4]triazolo[1,5-a]pyridin-8-yl]-3,6-dihydro-2H-pyridine-1-carboxylate], the Ki came to 3.28 nM. As for `CCOC(=O)N1CC=C(c2cccn3nc(Nc4ccc(C(=O)N[C@H]5CCCNC5)cc4)nc23)CC1` [Example 2-250, ethyl 4-[2-[4-[[(3S)-3-piperidyl]carbamoyl]anilino]-[1,2,4]triazolo[1,5-a]pyridin-8-yl]-3,6-dihydro-2H-pyridine-1-carboxylate], the Ki is 1.34 nM.

Consider `O=C(CCC(F)(F)F)N1CC=C(c2cccn3nc(Nc4ccc(C(=O)N5CCCC56CCNCC6)cc4)nc23)CC1` [Example 2-258, 1-[4-[2-[4-(1,8-diazaspiro[4.5]decane-1-carbonyl)anilino]-[1,2,4]triazolo[1,5-a]pyridin-8-yl]-3,6-dihydro-2H-pyridin-1-yl]-4,4,4-trifluoro-butan-1-one], for which the inhibitory constant (Ki) worked out at 1.94 nM.

In the case of `O=C(CCC(F)(F)F)N1CC=C(c2cccn3nc(Nc4ccc(C(=O)N(Cc5ccccn5)C5CC5)cc4)nc23)CC1` [Example 2-272, N-cyclopropyl-N-(2-pyridylmethyl)-4-[[8-[1-(4,4,4-trifluorobutanoyl)-3,6-dihydro-2H-pyridin-4-yl]-[1,2,4]triazolo[1,5-a]pyridin-2-yl]amino]benzamide], the inhibition constant Ki stood at 0.76 nM. `CCOC(=O)N1CC=C(c2cccn3nc(Nc4ccc(C(=O)NCC5CC56CCNCC6)cc4)nc23)CC1` (stereo not shown) [Example 2-306, ethyl 4-[2-[4-(6-azaspiro[2.5]octan-2-ylmethylcarbamoyl)anilino]-[1,2,4]triazolo[1,5-a]pyridin-8-yl]-3,6-dihydro-2H-pyridine-1-carboxylate]: the Ki was determined as 1.44 nM.

The target in the next assay is T1, isolated recombinant JAK1 kinase domain.
Experiment: not given
Particulars: read-out: JAK1 Ki; isolated recombinant JAK1 kinase domain, 25 μM ATP.
On to `CN1CCC(N(C)C(=O)c2ccc(Nc3nc4c(C5=CCN(C(=O)N6CC(C)(C)C6)C5)cccn4n3)cc2)CC1` [Example 2-481, 4-[[8-[1-(3,3-dimethylazetidine-1-carbonyl)-2,5-dihydropyrrol-3-yl]-[1,2,4]triazolo[1,5-a]pyridin-2-yl]amino]-N-methyl-N-(1-methyl-4-piperidyl)benzamide], for which the Ki is 266 nM.

Take `NCC1(c2ccccc2)CCN(c2cccn3nc(NC(=O)C4CC4)nc23)CC1` [Example 3-1, N-[8-[4-(aminomethyl)-4-phenyl-1-piperidyl]-[1,2,4]triazolo[1,5-a]pyridin-2-yl]cyclopropane carboxamide; hydrochloride]: the inhibition constant Ki was determined as 108 nM.
